Test results: the supplement of paper PMC11417369
± gives the standard deviation of the averaged measurements. The list shows a part of the results.

system: PfAP2-LT AP2 domain (GST-tagged); experiment: gcPBM binding intensity (ln(normalized median fluorescence intensity)); higher = stronger DNA binding
Procedure, shortened: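 Plasmodium falciparum DNA-binding domains carrying a GST tag were expressed in E. coli and applied for 1 h, at about 25 μg on average, to an Agilent 4 × 180k array. The array held primer-extended double-stranded 36-bp intergenic genomic probes together with negative controls, and binding took place in 1× PBS with 1% milk, 0.2 mg/ml BSA, 0.5% salmon testes DNA and 0.03% Triton X-100. An Alexa488 anti-GST antibody detected bound protein, and the array was scanned at 488 nm. Binding intensity is taken as the highest Masliner-normalised natural-log median intensity across replicate spots of either probe orientation.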

Sequence | gcPBM binding intensity (ln)
AATAATTGTAGACATGCACACACAAATATTATATAT [CACACA_site8181] | 9.53 ± 0.4
CCTTTCTATTGAAAATGTACATATATATTATTATAT [XGTACX_site5527] | 8.77 ± 0.48
AATAATTGTTATAGTTGTACAATACATATATTACAA [XGTACX_site30] | 8.68 ± 0.48
TGTATATATAAAAATATACACACTGTATTATTGTAA [CACACA_site3757] | 8.71 ± 0.46
CATATTTTGAACTTCACACATATATATATATATATA [CACACA_site4228] | 9.62 ± 0.37
GGTAGATTATTATTAACGAAAAATGTTTTTAACATA [GTGCAC_negctrl_site216] | 8.28 ± 0.47
TATATACAGAATATATGTACATATTCATTTTATATT [XGTACX_site5139] | 8.73 ± 0.42
AAATAAAAAATGGAAATCTTAACAAGAATCATTAAC [CACACA_negctrl_site1626] | 8.71 ± 0.53
AAAAAATAAATAAATAGTACTTTAAAAGAAAAAAAA [XGTACX_site5051] | 8.55 ± 0.51
CAATGTTACTATAATACACACAATATGTATTTGTCT [CACACA_site6668] | 9.09 ± 0.35
AAAGAAAACCAAGTGGTGCATTTTCGTTACTTCATC | 8.75 ± 0.48
TTGTTTAACTTGTTAAATATAATGTATCTGTGGATA [GTGCAC_negctrl_site108] | 8.47 ± 0.39
AATATATATACTTTTTTTTTTTTTTTTTTTTTTTTT [CACACA_negctrl_site520] | 8.7 ± 0.16
TATGTTTACATATACGTGCACATGAATGTATACATT [GTGCAC_site9894] | 8.96 ± 0.28
ACAAATTGTTAAAGGTGTACAATACATATATAAGAA [XGTACX_site4906] | 9.1 ± 0.53
TTTAGCACAAACAAAAAAAAAATAGAAAAAAATATA [CACACA_negctrl_site1772] | 8.47 ± 0.55
TTATATTTATATGTAATACAAAATAACAAAAAATTT [CACACA_negctrl_site1721] | 8.45 ± 0.37
TTGGTAATTTTAAAATGTACTTATTATATATATATA [XGTACX_site5642] | 8.56 ± 0.42
TATATATATATATCCACACACATACATATATTAATA [CACACA_site69] | 9.29 ± 0.34
TATACACTTGTAATAACACACATTATTTTTTTTTTT [CACACA_site1324] | 8.83 ± 0.42
ATAAAAAATTTAAGTATTTTTTACAAACCTATAAAT [GTGCAC_negctrl_site51] | 8.33 ± 0.49
AATTAACCGAAACACACACACATATATATATATATA [CACACA_site3963] | 10.24 ± 0.064

Sequence | gcPBM binding intensity (ln)
ATATATTTTTTTTAGCGTACATGCAAAAAAAAAAAA [XGTACX_site4590] | 8.36 ± 0.33
TTTTGTTGTTGTTGTTGTACATAAATAATAAAATAT [XGTACX_site8681] | 8.56 ± 0.35
TATACACACAGACATGCATGCACATATATATATACA [TGCATGCA_site30] | 9.54 ± 0.42
TATTTATTCACTTATTGTACTTATATATATAATAAA [XGTACX_site6147] | 8.65 ± 0.31
ATTTTTTTTTGTTTAATGTTATGTGGTCATTAAATT [CACACA_negctrl_site1177] | 8.78 ± 0.48
AAATTAAAAGAAAATACACACCTGTGGGTGCTTATA [CACACA_site5143] | 8.59 ± 0.44
AACATAAATTACTTTTTACACACTAATATAAAATAC [CACACA_site8297] | 8.73 ± 0.42
AATTGCTCGATATATGCACACAGTTTTGTTATTTTT [CACACA_site8465] | 9.38 ± 0.29
AAAACACGCGGACACACACACACACGCCCACATATA [CACACA_site7105] | 10.1 ± 0.33
ACTTTCAAGGATGTACGTACATATGTATTTTATAAC [XGTACX_site6714] | 8.99 ± 0.42
AATTAATTTATTTTATAAATAGTTAGATCGTCATAA [GTGCAC_negctrl_site660] | 8.32 ± 0.42
ATTTCATTAAAGATTACATGCAATTCTATATTATTT [TGCATGCA_site260] | 8.69 ± 0.36
AATATATATTTCTAAGATAAAACCCAAGGATAAAAA [CACACA_negctrl_site735] | 8.53 ± 0.45
AACATATTTTTTCTTAAACACACACCGATATATATA [CACACA_site8919] | 9.03 ± 0.29
TCTGTAAATATGTATACACACATATCTGATCAATAT [CACACA_site5743] | 9.14 ± 0.39
TCATGTAACCATTCATGTACTCAAAAAAAAAAAAAA [XGTACX_site1027] | 8.33 ± 0.38
TTTTTTATGATTAACACACACACAAAAAAAAAAAAA [CACACA_site4130] | 9.03 ± 0.32
AAAAAAAAAACAAATACACACGCACCCAAAAAAAAA [CACACA_site8166] | 9.61 ± 0.18
TTTTATATATATATATATATATATATATATGTATAT [CACACA_negctrl_site173] | 9.33 ± 0.21
AAATGAAAGAACAGCACACATATATATTATATATAA [CACACA_site2002] | 9.08 ± 0.54
TTATATATATGTAATTGTACTTTTAATTTTTTTTTA [XGTACX_site4357] | 8.47 ± 0.61
TATTTTATAATAGGCACACATATAAAAATATATATA [CACACA_site4127] | 8.58 ± 0.44

Sequence | gcPBM binding intensity (ln)
TAATTTTTTTTAAATACACACTGAAATGTGAATTTT [CACACA_site4476] | 8.46 ± 0.38
TAATAAAGTATTTTGCGTACTTATTTTATTCTTCTA [XGTACX_site2095] | 8.68 ± 0.52
GCCCCCAAATTATGTGTGCACTTTATATTCCTGAGA [GTGCAC_site9474] | 9.46 ± 0.099
ATTGTGTGAACAAAATGTACATTTTCTCTACATTAA [XGTACX_site1333] | 8.72 ± 0.44
TGGCATATATATAAATGTACTTTCTTTCTATCTGTT [XGTACX_site8483] | 8.76 ± 0.45
AGGTCATACATAAAATGTACATATATATAAATATAT [XGTACX_site7147] | 8.87 ± 0.47
ACAAGAATACACCACGCACACACACTAGAGAAAAAA [CACACA_site9276] | 10.1 ± 0.54
TGAACACCCAAATACACACACTCAAAAAAAAAAAAG [CACACA_site5467] | 9.42 ± 0.52
ATAAAAATAAAAGACGCATGTTCTTAAAATAAGAAC [TGCATGCA_site189] | 8.93 ± 0.47
AAACAAAATGGTAACACACACATATATATATATATA [CACACA_site1939] | 10.09 ± 0.021
ATATATATATATAATGCACACATTATGAATTATGTA [CACACA_site3384] | 9.18 ± 0.15
GTGTGATCTTTTGAAAGTACATTTTTTTTTTTTTTT [XGTACX_site6311] | 8.49 ± 0.33
TGTATGCATATTTGATGTACGCACATATACTAATTT [XGTACX_site3159] | 8.91 ± 0.38
TTTATATAAAAAAATTGTACATATTTATTATAAACA [XGTACX_site2124] | 8.28 ± 0.45
TATATTCTTATTATTGCATGCTGCACGAAGATTTTC [TGCATGCA_site831] | 9.06 ± 0.38
ATAATAAATAAAATAACACACATATATAGATATATA [CACACA_site6224] | 8.99 ± 0.42
GTATGTTTGTTATGCACACAAATGCATCTTATTTCC [CACACA_site2690] | 9.32 ± 0.41
TTTAATTATAAGATAACACACAAAAAAAATAAAATA [CACACA_site254] | 8.81 ± 0.47
TATTTAATTACATGAACACACATTATGTATTTTTAA [CACACA_site2962] | 8.72 ± 0.47
TAAAAAAAAAAAACAAGTACATATATAAATATATAT [XGTACX_site7537] | 8.6 ± 0.52
TTTTTATTTAATAATATATTAATCATATAAATAAAT [GTGCAC_negctrl_site210] | 8.06 ± 0.45
AAATACTATATCAAGCGTACTTATTTCATGGTAATA [XGTACX_site7878] | 8.88 ± 0.4

Sequence | gcPBM binding intensity (ln)
TTTAAAATATTTTCTTGTACGAAGGAACATTTCTTA [XGTACX_site4013] | 8.46 ± 0.53
TATATATATATATATTGTACATTTTTTTTTTTTTTT [XGTACX_site7891] | 9.04 ± 0.47
GTGCCTTTAAAAAAAAGTACAAAAAAGAACGAATTA [XGTACX_site3714] | 8.51 ± 0.47
AATTTCAAATTGTATGTGCACATGTAGAAGTACTTT | 9.03 ± 0.31
AAAAAAAAAAAAAGCACACACACATATGAGTATATA [CACACA_site4682] | 9.54 ± 0.38
TTTTCATTAAATATATATGCATACCATATGTACATT [GTGCAC_negctrl_site539] | 8.97 ± 0.53
TATGTAAAGAGTAAGGGTACATGTATAATACGGCTC [XGTACX_site1283] | 9.33 ± 0.44
ATATACATATGTGTGTGTACTTATATCACATTTTTG [XGTACX_site3785] | 9.43 ± 0.36
TTATGGATAAATAAATGTACGTTAAGATAACACAAA [XGTACX_site4208] | 8.61 ± 0.39
TCGACAAAGGCATATACACACATTTGTAACATAAAT [CACACA_site4471] | 9.15 ± 0.46
GTTTTTTTGTTTTAGTGTACCTAAAACTGCATGTAG [XGTACX_site294] | 8.9 ± 0.42
AAACCGAATTTACATGAATGTAAATTATGTTGTTTT [CACACA_negctrl_site1834] | 8.69 ± 0.32
ACATAAAATAAATATACACACATATGTATTTATTAT [CACACA_site5648] | 9.05 ± 0.33
CAAGAATAAAAATACAAGCACACATGTATGAAATAT [CACACA_site3214] | 9.32 ± 0.57
ATTTCTCTATAGTAATGTACAAAAAAAAGGAAAAAG [XGTACX_site2757] | 8.64 ± 0.55
ATACAAAAAGTAAAAAGTACTTAACTAAATATATAA [XGTACX_site2335] | 8.74 ± 0.56
TTTTCAATATATTAATGTACGAATACGCAAATAAGA [XGTACX_site1613] | 8.61 ± 0.34
GCACATAAATATATGACACACACACCGATTATATAT [CACACA_site9003] | 9.87 ± 0.2
TTAATAAATAAAAATGCACACAGTTAACATGTTGAA [CACACA_site1200] | 8.82 ± 0.36
ATAATAATTTAATACATACACACGTATATCTTTTTT [CACACA_site2041] | 8.94 ± 0.49
AAAAAAAAAAAAAAAACACACAAACATCAAATTATT [CACACA_site5083] | 8.98 ± 0.46
GCAGGATTGGTTCAAACACACATATTATATGACTAT [CACACA_site660] | 9.02 ± 0.38
